According to PubChem BioAssay AID686978 (National Center for Advancing Translational Sciences (NCATS), 2013):
“And” between values parts separate entries of the source, which are not always exact repeats. Identical values can stand only once. The whole screen tested about 420,000 compounds, of which about 64,000 (15%) were called active. Inconclusive means that the source gave no clear call. Such entries were picked first, then a sample of the others. Calls come from the whole dose curve; as a rule, active = well fitted inhibition curve with a large enough effect; inconclusive = small, poorly fitted or top-dose-only effect; inactive = flat fitted curve, though single readings scatter. Where the call is inconclusive, the potency comes from a doubtful curve fit.

Assay: qHTS for Inhibitors of human tyrosyl-DNA phosphodiesterase 1 (TDP1): qHTS in cells in absence of CPT; note: nearly all actives have a fitted effect of over 55% in size
Conditions: DT40 Tdp1-/- hTDP1 cells, no CPT, ATP luminescence, 48 h; activity change, negative = growth inhibition: at 46.2 µM (top of the series) unless noted
In short: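 Seeded 400 DT40-hTDP1 cells/well (vehicle DMSO, no 20 nM CPT); pinned compounds; ≥48 hr at 37 °C; CellTiter-Glo luminescence as viability measure.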
% is set by controls: 0 for no effect and ±100 for the full control effect; potency is the fitted concentration of half-maximal effect; tags give direction and shape of the fitted curve.

SMILES | Potency | activity change, negative = growth inhibition
CN(CC(=O)Nc1ccccc1Cl)C(=O)c1cccc(S(=O)(=O)N2CCN(c3ccccc3)CC2)c1 | inconclusive: 23.1 µM [inhibitor, single point] | 
CCN(C(=S)Nc1ccc(Oc2ccccc2)cc1)c1ccccc1 | inconclusive: 23.1 µM [inhibitor, single point] | 
Cc1cccc(CN2CCCC(C(=O)Nc3ccccc3Oc3cccnc3)C2)c1 (stereo not drawn) | inconclusive: 20.6 µM [inhibitor, partial curve] | 
CCc1cccc(C)c1NC(=O)CSc1nc(C)cc(C)c1C(=O)Nc1ccccc1 | inconclusive: 29.1 µM [inhibitor, single point] | 
CCCN(CCC)S(=O)(=O)c1ccc(C(=O)NCc2ccc3c(c2)OCO3)cc1 | inconclusive: 29.1 µM [inhibitor, single point] | 
COc1ccccc1N(CN1CCCC1=O)C(=O)c1c(F)cccc1F | inconclusive: 14.6 µM [inhibitor, partial curve] | 
N#Cc1ccc(C(=O)OCc2cccc(S(=O)(=O)N3CCOCC3)c2)cc1 | inconclusive: 29.1 µM [inhibitor, single point] | 
Cc1ccc(Oc2c(C(F)(F)F)oc3cc(OCC(=O)NC4CCCCC4)ccc3c2=O)cc1 | inconclusive: 18.4 µM [inhibitor, single point] | 
O=C(Cn1[nH]c(=O)c2ccccc2c1=O)OCC(=O)N(Cc1ccccc1)Cc1ccccc1 | inactive | 
CCCNC(=O)C(Cc1ccc(C(F)(F)P(=O)(OCC)OCC)cc1)NC(=O)c1ccc(C#N)cc1 (stereo not drawn) | inactive | 
COc1ccc(/C=C\C(=O)Oc2cccc(/C=N/NC(=O)Cc3ccc(OC)c(OC)c3)c2)cc1 | inconclusive: 23.1 µM [inhibitor, single point] | 
COc1ccc(CCN2CCCC(CN(C)Cc3cc(OC)c(OC)c(OC)c3)C2)cc1 (stereo not drawn) | active: 16.4 µM | 
CC(C)CCNC(=O)COC(=O)c1cc(Br)c(Br)s1 | inactive | 
CC(C)OCC(O)CN1CCN(CCN2C(=O)c3cccc4cccc(c34)C2=O)CC1 (stereo not drawn) | inconclusive: 25.9 µM [inhibitor, single point] | 
CCN(CC)CCNC(=O)c1c(O)c2cccc3c2n(c1=O)CCC3 | inconclusive: 18.4 µM [inhibitor, single point] | 
CCc1cccc(CC)c1NS(=O)(=O)c1ccc2c(c1)CCN2C(=O)C1CC1 | inactive | 
CC(C)c1ccc(S(=O)(=O)c2cnc(SCC(=O)Nc3cccc(C(F)(F)F)c3)nc2N)cc1 | inconclusive: 18.4 µM [inhibitor, single point] | 
CSCCC(NC(=O)c1ccccc1Br)C(=O)NC(C)CCc1ccccc1 (stereo not drawn) | inconclusive: 29.1 µM [inhibitor, single point] | 
Cc1cc(C)c(C#N)c(Cl)n1 | inactive | 
O=C(C1CCC(CNc2c(N3CCCCC3)c(=O)c2=O)CC1)N1CCN(c2ccccn2)CC1 (stereo not drawn) | inconclusive: 29.1 µM [inhibitor, single point] | 
O=C(Nc1ccc(Cl)c(C(F)(F)F)c1)[C@@H]1CC=C[C@@H]2CCN(Cc3ccc(Cl)c(Cl)c3)C(=O)[C@@H]21 | inconclusive: 35.5 µM [inhibitor, single point] and inconclusive: 25.9 µM [inhibitor, single point] | 
O=C(Nc1cccc2ccccc12)c1cn(-c2ccccc2)nc1-c1cccs1 | inconclusive: 29.1 µM [inhibitor, single point] | 
Cc1ccccc1OCc1nnc(SCC(=O)N2c3ccccc3Sc3ccc(Cl)cc32)o1 | inconclusive: 29.1 µM [inhibitor, single point] | 

SMILES | Potency | activity change, negative = growth inhibition
CCOC(=O)Nc1nc2ccc(Cn3cccc3)cc2[nH]1 | active: 0.58 µM | 
C=C(C)COc1ccc2c3c(c(=O)oc2c1OCC(=C)C)CCC3 | inconclusive: 29.1 µM [inhibitor, single point] | 
O=C(NC1CCCC1)C(C1CC1)n1c(-c2ccnc3ccccc23)nc2ccccc21 (stereo not drawn) | inconclusive: 29.1 µM [inhibitor, single point] | 
COC(=O)c1ccccc1NC(=O)c1onc(C)c1Cl | inactive | 
Cc1cccc(N2CCN(C(C(=O)NCc3ccccc3)c3ccco3)CC2)c1C (stereo not drawn) | inconclusive: 25.9 µM [inhibitor, single point] | 
COc1ccccc1CN(Cc1nc2ccccc2c(=O)[nH]1)S(=O)(=O)c1ccc(C)cc1 | inconclusive: 23.1 µM [inhibitor, single point] | 
CC(C)NC(=O)c1cn([C@H]2CC[C@@H](NC(=O)/C=C/c3cccs3)CC2)nn1 | inactive | 
COc1ccccc1N(CC(=O)Nc1ccc(Cc2ccncc2)cc1)S(=O)(=O)c1ccccc1 | inconclusive: 16.4 µM [inhibitor, partial curve] | 
Cc1ccc(-c2cn3cccnc3n2)cc1NC(=O)c1cccs1 | inconclusive: 32.6 µM [inhibitor, single point] | 
CCOc1ccc(Nc2nc(NCC3CCCO3)c3ccccc3n2)cc1 (stereo not drawn) | active: 2.91 µM | 
COc1ccc(/C=C/C(=O)c2ccc(C)c([N+](=O)[O-])c2)cc1O | active: 13 µM | 
COc1ccc(-c2cc(-c3ccc(OC)cc3)nc(-c3ccc4c(c3)NC(=O)CO4)c2)cc1 | inconclusive: 18.4 µM [inhibitor, single point] | 
CCC(Sc1ccc2nnc(-c3cccnc3)n2n1)C(=O)OC (stereo not drawn) | inconclusive: 3.98 µM [inhibitor, partial curve] | 
COc1ccc(-c2ccc(CCC(=O)O)n2-c2cc(OC)ccc2OC)cc1 | inconclusive: 29.1 µM [inhibitor, single point] | 
CCOC(=O)c1cc(-c2ccc(OC)c(S(=O)(=O)Nc3ccc(OC)cc3OC)c2)on1 |  | inconclusive: -31% [inhibitor]
COc1ccc(CC(=O)NCCCSc2ccccc2)cc1OC | inactive | 
Cc1ccc(NC(=S)N/N=C2\CC3CC=CC23)c(C)c1 (stereo not drawn) | inactive | 
COc1ccc(OC)c(CCNC(=O)CC2(CC3=NS(=O)(=O)c4ccccc4N3)CCCC2)c1 | inconclusive: 29.1 µM [inhibitor, single point] | 
CCOc1cc(/C=N/NC(=O)C(O)(c2ccccc2)c2ccccc2)ccc1OC(=O)c1ccco1 | inconclusive: 20.6 µM [inhibitor, single point] | 
O=C1CC(c2ccc(Cl)cc2)Oc2ccc(Cl)cc21 (stereo not drawn) | inconclusive: 20.6 µM [inhibitor, single point] | 
N#CCCn1c(=O)c(-c2cccs2)nc2cnc(Oc3cccc(Cl)c3)nc21 | inconclusive: 9.2 µM [inhibitor, partial curve] | 
Cc1ccc(-c2cc(C(=O)O)c3cc(Br)ccc3n2)s1 | inconclusive: 29.1 µM [inhibitor, single point] | 
CCn1c2ccccc2c2cc(/C=C(/C#N)C(N)=S)ccc21 | active: 16.4 µM | 

SMILES | Potency | activity change, negative = growth inhibition
Cc1ccc(/C=N/NC(=O)CSc2nc3ccccc3n2Cc2ccccc2)o1 | inconclusive: 14.6 µM [inhibitor, partial curve, poor fit] | 
COC(=O)c1sccc1S(=O)(=O)N1CCN(c2ccccc2OC)CC1 | inconclusive: 16.4 µM [inhibitor, partial curve] | 
O=C(Nc1ccc2nc(SCCOc3ccccc3Cl)sc2c1)c1cccs1 | inconclusive: 23.1 µM [inhibitor, single point] | 
CCOCCCn1cnc2c3cc(F)ccc3n(C)c2c1=O | inconclusive: 32.6 µM [inhibitor, single point] | 
CCC1=Nc2cc(C(=O)NCc3ccco3)ccc2Sc2ccccc21 | active: 4.61 µM | 
N=C1S/C(=C\c2ccccc2F)C(=O)N1c1ccc(F)cc1 | inconclusive: 10.3 µM [inhibitor, partial curve, poor fit] | 
Cc1c(NC(=O)c2nn3c(C(F)(F)F)cc(-c4ccccc4)nc3c2Cl)c(=O)n(-c2ccccc2)n1C | inconclusive: 29.1 µM [inhibitor, single point] | 
CCOc1cc(N2CCOCC2)c(OCC)cc1NC(=O)c1cc(-c2ccco2)nc2ccccc12 | active: 23.1 µM | 
NS(=O)(=O)c1ccc(NC2(C(=O)O)CCCC2)cc1 | inconclusive: 0.366 µM [inhibitor, full curve, poor fit] | 
Cc1cccc([C@@H]2CN(C)CCc3c2cc(O)c(O)c3Cl)c1 | inconclusive: 33.5 µM [inhibitor, single point] | 
CC(=O)N1N=C(c2ccco2)CC1c1ccco1 (stereo not drawn) | inconclusive: 29.1 µM [inhibitor, single point] | 
Cc1c(/C(Cc2ccccc2)=N/O)c2ccccc2n1C |  | inconclusive: -31.8% [inhibitor]
Cc1cc(Cn2nnc3ccccc32)c(O)c(C(C)(C)C)c1 | active: 16.4 µM | 
CCOC(=O)C1(C)CCN1C(=O)c1ccc(Cl)cc1Cl (stereo not drawn) | inactive | 
CS(=O)(=O)N(CCc1ccccc1)CC(=O)NCc1ccccc1Cl | inconclusive: 6.51 µM [inhibitor, partial curve] | 
CON1C(=O)C(=O)N(OC)C(C)(C)C1C (stereo not drawn) | inactive | 
CCN1C(=O)c2ccccc2S(=O)c2ccc(C(=O)NCc3ccc(F)cc3)cc21 (stereo not drawn) | inconclusive: 20.6 µM [inhibitor, single point] | 
O=C1c2ccccc2C(=O)c2c1ccc1c(=O)n(C3CCCCC3)[nH]c21 | active: 23.1 µM | 
O=Cc1ccc(O)c(O)c1 | inactive | 
C[C@@H]1CN([C@@H](C)CO)C(=O)CCCn2nncc2CO[C@@H]1CN(C)C(=O)Nc1ccc2c(c1)OCO2 | inactive | 
O=C(CSc1ccccc1)N/N=C/c1ccccc1O | active: 2.59 µM | 
Cc1cc(NC(=O)/C=C/C(=O)N(CC(=O)NC2CCCC2)c2cccc3ccccc23)no1 | inactive | 
